Test results: PubChem BioAssay AID504845 (National Center for Advancing Translational Sciences (NCATS), 2011)
“And” between values parts separate entries of the source, which are not always exact repeats. Identical values can stand only once. In all, about 390,000 compounds went through this assay and about 150 (0.038%) were called active. Inconclusive results, whose numbers are uncertain, are shown with a selection of clear calls. Calls follow the shape of the dose curve; as a rule, active = well fitted inhibition curve with a large enough effect; inconclusive = small, poorly fitted or top-dose-only effect; inactive = no such curve, though single readings can be large or run the other way. A potency beside an inconclusive call is a rough fit, not a confirmed value.

What follows are compounds tested against Regulator of G-protein signaling 4 (Homo sapiens) (UniProt P49798) (assay: Inhibitors of Regulator of G Protein Signaling (RGS) 4: qHTS). Details: Transcreener GDP fluorescence polarization, RGS4-accelerated GTP hydrolysis; series mostly up to 114 µM.
Method in brief: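 MLSMR compounds (23 nl, pin-transferred) preincubated 10 min at room temperature with a 500nM (2x) first reagent, then RGS4 at 900nM (2x) plus Transcreener GDP mix added; fluorescence polarization (620/688 nm) read before and after 90 min at 30 °C.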
Also: nearly all actives have a fitted effect of over 75% in size.
Potency is read from the fitted curve at half-maximal effect; tags tell the direction and shape of the fitted curve.

Sequence of UniProt P49798 (P49798 whole entry, looked up): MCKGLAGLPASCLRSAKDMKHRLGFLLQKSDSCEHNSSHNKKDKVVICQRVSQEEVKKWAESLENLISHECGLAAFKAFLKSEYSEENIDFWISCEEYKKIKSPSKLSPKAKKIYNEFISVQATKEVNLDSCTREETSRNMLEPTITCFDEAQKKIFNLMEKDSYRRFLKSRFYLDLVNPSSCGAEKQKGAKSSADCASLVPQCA

Row | SMILES | Potency
1 | O=S(=O)(c1ccccc1)N(c1ccccc1)S(=O)(=O)c1ccccc1 | inconclusive: 89.1 µM [inhibitor, single point]
2 | Cc1ccccc1C(=O)NNC(=S)NC(=O)c1ccc(Cl)cc1Cl | inactive
3 | COc1ccccc1C(=O)NCCN1CCN(c2ccccc2)CC1 | inactive
4 | CCCCCOC(=O)c1ccc(Nc2nc(C(=O)OCC)nc3ccccc23)cc1 | inactive
5 | O=C(c1ccccc1F)N1CCN(c2ccc([N+](=O)[O-])c3cccnc23)CC1 | inactive
6 | CN1CC(=O)N(CC(=O)Nc2ccc(N(C)C)cc2)c2ccccc2C1=O | inconclusive: 89.1 µM [inhibitor, single point]
7 | CCOC(=O)C1CCN(c2c(N(C)Cc3ccco3)c(=O)c2=O)CC1 | inactive
8 | O=C(c1c(F)c(F)c(F)c(F)c1F)N1CCc2ccccc21 | inconclusive: 79.4 µM [inhibitor, partial curve, poor fit]
9 | CCCCCCCCCCCCCCCCCC(=O)NCC(COP(=O)([O-])OCC[N+](C)(C)C)OCC (stereo unspecified) | inconclusive: 37.7 µM [inhibitor, single point]
10 | O=C(c1ccc2c3n(nc2c1)-c1ccccc1CO3)N1CCOCC1 | inactive
11 | CCOC(=O)c1oc2ccccc2c1NC(=O)CCl | inactive
12 | N=c1n(CCN2CCCC2)c2ccccc2n1CC(O)c1ccc(Cl)c(Cl)c1 (stereo unspecified) | inconclusive: 79.4 µM [inhibitor, partial curve, poor fit]
13 | Cc1cccc(NC(=S)NCc2ccc(F)cc2)c1C | inactive
14 | CCN(C(=O)COC(=O)CSc1ccc([N+](=O)[O-])cc1)C1CCS(=O)(=O)C1 (stereo unspecified) | inconclusive: 31.6 µM [inhibitor, full curve, poor fit]
15 | CCC1(c2ccc(Cl)cc2)NC(=S)N(c2ccc(C)cc2)N1 (stereo unspecified) | inconclusive: 70.8 µM [inhibitor, partial curve, poor fit]
16 | O=C(c1ccc(Cl)cc1)N1CCC(O)(CSc2ccc(Cl)cc2)CC1 | inactive
17 | CC1(C)CC[C@]2(C(=O)n3ccnc3)CC[C@]3(C)[C@H](C(=O)C=C4[C@@]5(C)C=C(C#N)C(=O)C(C)(C)[C@@H]5CC[C@]43C)[C@@H]2C1 | inconclusive: 31.6 µM [inhibitor, partial curve, poor fit]
18 | Nc1ncnc2c1ncn2[C@@H]1O[C@H](C(=O)NC2CC2)[C@@H](O)[C@H]1O | inconclusive: 1.19 µM [inhibitor, partial curve, poor fit]
19 | COc1ccccc1Cn1[nH]nnc1=S | inconclusive: 50.1 µM [inhibitor, partial curve, poor fit]
20 | COCCn1nnnc1C(c1ccc2ncccc2c1)N1CCN(c2ccccc2F)CC1 (stereo unspecified) | inactive
21 | O=C(CCN1C(=O)/C(=C/c2ccco2)SC1=S)Nc1ccc(C(=O)O)c(O)c1 | inconclusive: 35.5 µM [inhibitor, partial curve, poor fit]
22 | CCn1cc(Br)c(C(=O)Nc2ccccc2C(=O)OC)n1 | inactive

Row | SMILES | Potency
23 | O=C(NN=C1CCCCCCC1)c1ccc(F)cc1 | inconclusive: 31.6 µM [inhibitor, full curve, poor fit]
24 | CCCn1c(=O)c2ccccc2n2c(SCCOc3ccc(Cl)cc3)nnc12 | inactive
25 | O=C(NCC1COc2ccccc2O1)c1c[nH]c2ccc(S(=O)(=O)N3CCOCC3)cc2c1=O (stereo unspecified) | inactive
26 | Nc1ccc2[nH]c(=S)sc2c1 | inconclusive: 44.7 µM [inhibitor, partial curve, poor fit]
27 | O=C1/C(=C/c2ccncc2)SC(=S)N1Cc1ccccc1 | inconclusive: 50.1 µM [inhibitor, partial curve, poor fit]
28 | O=C(CCOc1ccccc1)N(Cc1cccnc1)c1nc2c(Cl)cccc2s1 | inconclusive: 44.7 µM [inhibitor, partial curve, poor fit]
29 | COc1ccc(Br)cc1CN1CCCC(C(=O)N2CCCCCC2)C1 (stereo unspecified) | inconclusive: 79.4 µM [inhibitor, single point]
30 | O=C(CSc1nnc(CNc2ccc(F)cc2)o1)OC1CCCCC1 | inconclusive: 70.8 µM [inhibitor, partial curve, poor fit]
31 | O=C(O)c1ccc(Nc2nc(-c3ccccc3)nc3ccccc23)cc1 | inconclusive: 28.2 µM [inhibitor, full curve, poor fit]
32 | CCOc1ccc2c(c1)nc(SCC(=O)c1ccc(Br)s1)n2C | inconclusive: 79.4 µM [inhibitor, partial curve, poor fit]
33 | O=C(O)c1cccc(-n2cccc2/C=C/[N+](=O)[O-])c1 | inactive
34 | Cc1ccc(C2CC(c3cccs3)=NN2C(=O)c2ccc(Br)o2)cc1 (stereo unspecified) | inconclusive: 89.1 µM [inhibitor, single point]
35 | CCN1CC=C2C(C#N)=C(N)C(C#N)(C#N)C(CCc3ccccc3)C2C1 (stereo unspecified) | inactive
36 | CCOc1cc(C2CC(=O)N3CN(C4CCCCC4)CSC3=C2C#N)ccc1O (stereo unspecified) | inconclusive: 100 µM [inhibitor, partial curve, poor fit] and inconclusive: 28.2 µM [inhibitor, full curve, poor fit]
37 | CC(C)NC(=O)c1cnc2sc(N3CCCCCC3)nn2c1=O | inactive
38 | COc1cc(/C=N\NC(=O)c2c(C)nc3cc(C)ccn23)ccc1O | inconclusive: 50.1 µM [inhibitor, partial curve, poor fit]
39 | COc1ccc(CN(C(=O)Nc2ccccc2)c2ccccn2)cc1OC | inactive
40 | CCCCC1(C)NC(=S)N2N1C(=S)NC2(C)CCCC (stereo unspecified) | inconclusive: 31.6 µM [inhibitor, full curve, poor fit]
41 | c1ccc(N/N=C(\Cc2ncc[nH]2)c2ccccc2)cc1 | inconclusive: 50.1 µM [inhibitor, partial curve, poor fit]
42 | O=C(Cn1c(=O)n(-c2ccccc2)c(=O)c2ccc(C(=O)NCc3ccc4c(c3)OCO4)cc21)Nc1ccc(Br)cc1F | inactive
43 | CCCCSCCCNC(=O)CN1C(=O)COc2ccc(S(=O)(=O)N3CCCC3)cc21 | inactive
44 | COC(=O)/C(=C\Nc1ccc(Cl)c2ccccc12)c1ncc(C(F)(F)F)cc1Cl | inconclusive: 89.1 µM [inhibitor, single point]

Row | SMILES | Potency
45 | COc1cc(C(=O)NC(C(=O)Nc2cccc(C(C)=O)c2)C(C)C)cc(OC)c1OC (stereo unspecified) | inconclusive: 70.8 µM [inhibitor, partial curve, poor fit]
46 | CC1(C)Cc2nc3sc4c(N(CCO)CCO)ncnc4c3cc2CO1 | inconclusive: 89.1 µM [inhibitor, single point]
47 | O=C(O)Cn1c2c(c3ccccc31)CSc1ccc(Cl)cc1-2 | inconclusive: 50.1 µM [inhibitor, partial curve, poor fit]
48 | CC(C)COC(=O)Nc1nnc(Cc2ccccc2)s1 | inconclusive: 50.1 µM [inhibitor, partial curve, poor fit]
49 | Cc1ccc(NC(=O)c2ccc3c(c2)S(=O)(=O)c2ccccc2C3=O)cc1S(=O)(=O)N1CCOCC1 | inactive
50 | CCOC(=O)N1CCC(N2CCN(c3cc(C)ccc3C)CC2)CC1 | inactive
51 | O=C(O)c1cc(N/N=C/c2ccc(N3CCOCC3)s2)ccc1Cl | inconclusive: 70.8 µM [inhibitor, partial curve, poor fit]
52 | COc1ccc(CNc2nc3nc(C)c(Cl)c(C)n3n2)cc1OC | inactive
53 | O=C(C1=C(O)C(=O)N(Cc2ccco2)C1c1ccccc1F)c1cccs1 (stereo unspecified) | inconclusive: 56.2 µM [inhibitor, partial curve, poor fit]
54 | O=C(O)c1ccc(-c2ccc(/C=c3/sc4nc5ccccc5n4c3=O)o2)cc1Cl | inconclusive: 89.1 µM [inhibitor, single point]
55 | O=C1NN(c2ccccc2)C(=O)/C1=C/c1ccc(Sc2cccc3ccccc23)o1 | inconclusive: 10 µM [inhibitor, full curve, poor fit]
56 | Cn1cc(/C=C/c2cc[n+](C)cc2)c2cc(F)ccc21 | inactive
57 | O=C1N/C(=C/c2ccc(N3CCOCC3)o2)C(=O)N1c1ccccc1 | inconclusive: 31.6 µM [inhibitor, full curve, poor fit]
58 | O=c1cc(O)n(C2CCCCCC2)c(=O)[nH]1 | inconclusive: 11.2 µM [inhibitor, full curve, poor fit]
59 | CCc1c(C)[nH]c2c1C(=O)C(CN1CCOCC1)CC2 (stereo unspecified) | inconclusive: 18.9 µM [inhibitor, single point]
60 | COc1ccc(CCNc2ncnc3c2[nH]c2cc(OC)c(OC)cc23)cc1OC | inconclusive: 50.1 µM [inhibitor, partial curve, poor fit]
61 | N#CC1=C(N)NC(SCc2ccccc2)=C(C#N)C12CCCC2 | inconclusive: 50.1 µM [inhibitor, partial curve, poor fit]
62 | COc1ccc(C2CC(c3ccco3)n3ncnc3N2)cc1 (stereo unspecified) | inconclusive: 28.2 µM [inhibitor, full curve, poor fit]
63 | O=S(=O)(/N=S1/CC=CCN1S(=O)(=O)c1ccccc1)c1ccccc1 (stereo unspecified) | inconclusive: 35.5 µM [inhibitor, partial curve, poor fit]
64 | O=C(COC(=O)C1=COCCO1)Nc1cccc(Oc2ccccc2)c1 | inconclusive: 79.4 µM [inhibitor, partial curve, poor fit]
65 | COc1ccc(OC)c(N=C2C(=O)Nc3ccccc32)c1 | inconclusive: 89.1 µM [inhibitor, single point]
66 | COc1ccc(CC(=O)OCC(=O)NCC2CCCO2)cc1OC (stereo unspecified) | inconclusive: 100 µM [inhibitor, single point]
